{
  "source": "PubChem BioAssay AID1159614",
  "about": "(National Center for Advancing Translational Sciences (NCATS), 2016)",
  "note": "Screen size: about 45,000 compounds; about 65 (0.1%) were called active. The call rests on the fitted dose curve; in most records, active means well fitted activation curve with a large enough effect; inconclusive means small, poorly fitted or top-dose-only effect; inactive means no such curve, though single readings can be large or run the other way. This is one part of the list.",
  "data": [
    {"molecular_target": "Galactocerebrosidase (Homo sapiens) (UniProt P54803)", "sequence (P54803 whole entry, looked up)": "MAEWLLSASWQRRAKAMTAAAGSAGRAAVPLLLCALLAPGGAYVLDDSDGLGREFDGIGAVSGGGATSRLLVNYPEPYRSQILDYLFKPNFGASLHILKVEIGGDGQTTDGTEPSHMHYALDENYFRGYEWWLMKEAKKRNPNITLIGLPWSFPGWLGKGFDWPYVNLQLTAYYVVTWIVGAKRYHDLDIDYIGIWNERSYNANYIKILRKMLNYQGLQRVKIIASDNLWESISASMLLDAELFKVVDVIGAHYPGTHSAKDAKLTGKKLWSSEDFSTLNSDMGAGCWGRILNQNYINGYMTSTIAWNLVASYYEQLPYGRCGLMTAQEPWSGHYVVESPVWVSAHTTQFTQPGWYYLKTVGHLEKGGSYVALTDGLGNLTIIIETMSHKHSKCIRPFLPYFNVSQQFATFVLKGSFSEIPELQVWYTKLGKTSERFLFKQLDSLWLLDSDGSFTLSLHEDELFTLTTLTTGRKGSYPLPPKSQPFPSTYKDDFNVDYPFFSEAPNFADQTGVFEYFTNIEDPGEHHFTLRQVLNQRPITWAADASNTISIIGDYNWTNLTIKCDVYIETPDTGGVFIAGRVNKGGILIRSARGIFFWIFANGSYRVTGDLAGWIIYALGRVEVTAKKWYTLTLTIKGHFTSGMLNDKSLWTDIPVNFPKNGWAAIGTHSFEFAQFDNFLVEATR", "test": "A Novel Cell-Based Assay to Identify Small Molecules for B -Galactocerebrosidase; further: 0% is about no effect; nearly all actives have a fitted effect of over 65% in size", "details": "145M-Twi-hGALC-G270D cells (Twitcher mouse brain line with human GALC G270D), HMU-beta-Gal fluorescence, 48 h; series mostly up to 57.5 µM; activation: at the top concentration", "excerpt": "Lysosomal storage diseases (LSDs) are caused by genetic mutations in genes encoding proteins important for normal lysosomal function. Globoid cell leukodystrophy (GLD), mostly known as Krabbe disease, is a prototype of the neurological LSDs caused by deficiency of beta-galactocerebrosidase (GALC). In brain specimens of GLD patients, psychosine levels are substantially elevated. At elevated concentrations, psychosine becomes cytotoxic to neuronal cells, particularly to oligodendrocytes (OLG), neural cells responsible for myelin formation. Therefore, the biochemical disturbances in GLD are manifested by different degrees of brain demyelination resulting in a broad spectrum of neurological manifestations. Most of the FDA-approved therapies are based on enzyme replacement therapeutic (ERT) agents, which treat non-neurological symptoms of Gaucher disease, Fabry disease, few mucopolysaccharidoses and Pompe disease. Unfortunately, in GLD, a primarily neurological LSD, ERT agents, as large molecular weight molecules unable to cross the blood-brain barrier, which makes this an inefficacious therapeutic approach. In GLD, increasing the residual GALC activity just above the critical threshold (~10% of wild type enzymatic activity), the cytotoxic levels of psychosine will be reduced, avoiding the OLGs apoptosis and the subsequent demyelination process. This will translate in disease stabilization and amelioration of GLD patient symptoms.\nA cell-based assay in 1,536-well plate format was developed to implement a quantitative high-throughput screening (qHTS) assay using GLD-disease relevant cells to identify small molecules that produce enhancements of the residual enzymatic activity levels of mutants GALC found and prevalent in GLD patients. Compounds that are active may therefore have some therapeutic application for GLD. After the treatment of live cells for a determined period, using a fluorescent GALC specific substrate, the mutant residual GALC activity is measured. This cell-based qTHS assay was used to screen part of the MLPCN library for small molecule able to increase the mutant GALC enzymatic activity. In this assay, increased fluorescent signal corresponds to enhanced levels of mutant GALC residual enzymatic activity. Activation is the desired outcome for this assay.\nNIH Chemical Genomics Center [NCGC]\nNIH Molecular Libraries Probe Centers Network [MLPCN]\nAssay Submitter (PI): Gustavo Maegawa MD,PhD, University of Florida, Gainesville, FL\n2)#Two cell lines were established for the assay: 145M-Twi-hGALC-G270D (brain-derived Twitcher cell line stably expressing human GALC-G270D) and 145M-Twi-hGALC-WT (same 145M-Twi stably expressing human GALC wild type). The Twitcher is the murine C57B/6 model for GLD with naturally occurring homozygous nonsense GALC mutation. The 145M-Twi cell line was established at Maegawa lab (Ribbens J et al 2014).\na.#Media: DMEM/F12 (1:1) with 10% fetal bovine-serum (FBS) with penicillin/streptomycin (PS-1X - 100 I.U./mL of penicillin+100 ug/mL of streptomycin).\nb.#The 6-Hexadecanoylamino-4-methylumbelliferyl-b-D-galactoside (HMU-B-gal) substrate was prepared as per Wiederschain et al 1992. Using 20-mL borosilicate tubes, 2.20 mg of HMU-b-Gal was added in each tube to prepare substrate-film with a final air-nitrogen stream evaporation to remove all diluent solvents.\nc.#The HMUb-Gal substrate buffer consists of 0.2 M Na2HPO4 (sodium phosphate dibasic)/ 0.1 M Citric Acid with the pH adjusted to 5.2 using HCl. Sodium Azide at 0.02% and Sodium Taurocholate (NaTC) at 1 mg/mL were added to this substrate buffer.\nd.#The HMU-b-Gal stopping buffer consist of 0.5 M NaHCO3 (sodium bicarbonate) /0.5 M Na2CO3 (sodium carbonate). […] Triton X-100 at 0.25% was added.\n4)#Preparation of HMU-b-Gal substrate tubes\nAdding 18.6 mL of the HMUb-Gal substrate buffer to each 20-mL tube (2.20 mg of HMU-b-Gal) will reach a concentration of 0.2 mM. Vortex well the tube until the solution is fully homogenized (clear cloudy solution). […]", "values": [
      {"molecule": "Cc1cc2oc(C(=O)Nc3sc4c(c3C(=O)NCc3ccccc3)CCCC4)cc(=O)c2cc1C", "activation": "inactive: -5.61%"},
      {"molecule": "CCC(CC)C(=O)NCc1nc2cccnc2n1Cc1ccc(F)cc1", "activation": "inactive: -22.6%"},
      {"molecule": "CCCN(CCC)C(=O)c1cn(CC)c2ccc(S(=O)(=O)N3CCCCC3)cc2c1=O", "activation": "inactive: -18.4%"},
      {"molecule": "COc1cccc(CNC(=O)C2CCN(C(=O)c3sccc3-n3cccc3)CC2)c1", "activation": "inactive: -2.01%"},
      {"molecule": "O=C(NCCCO)C(=O)Nc1c2c(nn1-c1ccccc1)CSC2", "activation": "inactive: -9.62%"},
      {"molecule": "CCCN(CCC)C(=O)C1CCCN(c2ncnc3onc(-c4ccc(F)cc4)c23)C1", "note": "(stereo not drawn)", "activation": "inactive: -4.73%"},
      {"molecule": "Cc1ccc(CSCCC(=O)N2CCN(c3cc(C)ccc3C)CC2)cc1", "activation": "inactive: -8.86%"},
      {"molecule": "COCCCNC(=O)c1sc2nc(C)c(C(=O)Nc3ccc(C)cc3C)c(-c3ccc(Br)cc3)c2c1N", "activation": "inactive: -23.1%"},
      {"molecule": "CCC(C)NC(=O)CSc1nnc(-c2ccc(C)cc2)c(-c2ccc(C)cc2)n1", "note": "(stereo not drawn)", "activation": "inactive: -3.49%"},
      {"molecule": "COc1ccc(-c2noc(CN(C(=O)Cc3ccc(C)cc3)C(C)C)n2)cc1", "activation": "inactive: -33.2%"},
      {"molecule": "COc1cc(C)ccc1OCCSc1nc2ccc(NC(=O)c3cccs3)cc2s1", "activation": "inactive: -24.7%"},
      {"molecule": "Cc1ccc(C(=O)Nc2ccccc2C(=O)OCc2cc(=O)n3nc(C4CC4)sc3n2)cc1", "activation": "inactive: 3.78%"},
      {"molecule": "O=C(CN1C(=O)C2(SCC(=O)N2c2ccccc2)c2ccccc21)NCCc1ccccc1", "note": "(stereo not drawn)", "activation": "inactive: 5.16%"},
      {"molecule": "Cc1cn2c(=O)cc(COC(=O)c3ccccc3F)nc2s1", "activation": "inactive: -10.9%"},
      {"molecule": "CCc1ccc(NC(=O)CSc2nc3c(sc4ccccc43)c(=O)n2CCN(CC)CC)cc1", "activation": "inactive: -12.5%"},
      {"molecule": "Cc1ccc(CNS(=O)(=O)c2cc3c(cc2C)N(C)CCO3)cc1", "activation": "inactive: -15.5%"},
      {"molecule": "CCN(CC)CCCNC(=O)C(=O)Nc1ccc2nc3n(c(=O)c2c1)CCCCC3", "activation": "inactive: -12.8%"},
      {"molecule": "COc1ccc(/C=C/C(=O)Nc2ccc(Cl)cc2Cl)cc1", "activation": "inactive: -13.7%"},
      {"molecule": "Cc1ccc(Cn2ccnc2SCC(=O)Nc2ccc3c(c2)OCCO3)cc1", "activation": "inactive: -15.4%"},
      {"molecule": "Cc1ccc(CNC(=O)c2cccc(NC(=O)N3CCSc4ncccc43)c2)cc1", "activation": "inactive: -3.02%"},
      {"molecule": "Cc1ccc(S(=O)(=O)C(CNC(=O)COc2ccc(Cl)cc2)c2ccco2)cc1", "note": "(stereo not drawn)", "activation": "inactive: -11.9%"},
      {"molecule": "CC(=O)Nc1cccc(NC(=O)CSc2nccn2Cc2ccco2)c1", "activation": "inactive: -15%"},
      {"molecule": "Cc1cc(C)cc(NC(=O)CCCc2nnc3n(CC(C)C)c(=O)c4sccc4n23)c1", "activation": "inactive: -4.91%"},
      {"molecule": "Cc1ccc(NC(=O)Cn2cc(C(=O)c3ccco3)c3ccccc32)c(C)c1", "activation": "inactive: -10.6%"},
      {"molecule": "Cc1ccccc1CNC(=O)c1cc2cccc3c2n1CC(C)S3", "note": "(stereo not drawn)", "activation": "inactive: -19%"},
      {"molecule": "CCOc1cc(C2CC(=O)Nc3c2c(=O)nc(SCc2cccc(Cl)c2)n3C)ccc1O", "note": "(stereo not drawn)", "activation": "inactive: -7.33%"},
      {"molecule": "O=C(Nc1cccc(Cl)c1)c1cc(S(=O)(=O)N2CCCc3ccccc32)ccc1F", "activation": "inactive: -11.4%"},
      {"molecule": "CC(=O)Nc1ccc(NC(=O)c2nc(SCc3ccccc3C)ncc2Cl)cc1", "activation": "inactive: -9.64%"},
      {"molecule": "COc1cccc(OCc2cc(=O)n3cc(C)sc3n2)c1", "activation": "inactive: -2.34%"},
      {"molecule": "CCOc1ccc(OCC)c(-n2cnnn2)c1", "activation": "inactive: -7.16%"},
      {"molecule": "Fc1ccccc1N1CCN(c2ncnc3onc(-c4cccc(Cl)c4)c23)CC1", "activation": "inactive: 0.288%"},
      {"molecule": "Cc1c(NC(=O)Nc2ccc(Cl)c(C(F)(F)F)c2)c(=O)n(-c2ccccc2)n1C", "activation": "inactive: -4.04%"},
      {"molecule": "COc1ccc(-c2cc3c(=O)n(CC(=O)Nc4cc(C)ccc4C)ccn3n2)cc1", "activation": "inactive: -12.5%"},
      {"molecule": "COc1ccc(-n2c(SCC(=O)NC3CCCCC3)nc3c([nH]c4ccccc43)c2=O)cc1", "activation": "inactive: -9.53%"},
      {"molecule": "Cc1ccc(Cl)cc1-n1ncc2c(NCCC3=CCCCC3)ncnc21", "activation": "inactive: 2.21%"},
      {"molecule": "NS(=O)(=O)c1ccc(NC(=O)CN2CCN(c3ccc(F)cc3)CC2)cc1", "activation": "inactive: -7.86%"},
      {"molecule": "Cn1c(=O)c2c(-c3ccccc3Br)n(Cc3ccccc3)cc2n(C)c1=O", "activation": "inactive: -12.5%"},
      {"molecule": "Cc1cccn2c(=O)cc(COc3ccc(NC(=O)C(C)Oc4ccccc4)cc3)nc12", "note": "(stereo not drawn)", "activation": "inactive: -14.1%"},
      {"molecule": "Cc1cccc(Cc2c(C)nc3nc(SCc4cccc(F)c4)nn3c2C)c1", "activation": "inactive: -4.24%"},
      {"molecule": "O=S(=O)(c1ccccc1)c1nnn2c1nc(NC1CCCCCC1)c1sccc12", "activation": "inactive: -14.8%"},
      {"molecule": "O=C(CN(c1cccc(C(F)(F)F)c1)S(=O)(=O)c1ccccc1)Nc1cccc(Cl)c1", "activation": "inactive: -23.3%"},
      {"molecule": "Cc1ccc(-c2nc(S(=O)(=O)c3ccc(C)cc3)c(N3CCCCC3)o2)cc1", "activation": "inactive: -10.1%"},
      {"molecule": "COc1ccccc1CNC(=O)C(=O)NCC(c1cccnc1)N1CCN(c2ccc(F)cc2)CC1", "note": "(stereo not drawn)", "activation": "inactive: -11.6%"},
      {"molecule": "Cc1ccc(Cn2ccnc2SCC(=O)NC2CCCC2)cc1", "activation": "inactive: -21.5%"},
      {"molecule": "COc1cc(S(=O)(=O)n2ccnc2C(C)C)ccc1Br", "activation": "inactive: -15.7%"},
      {"molecule": "CCOc1ccc(CCNC(=O)CN2C(=O)COc3ccc(S(=O)(=O)N(CC)CC)cc32)cc1", "activation": "inactive: -2.79%"},
      {"molecule": "COc1cccc(N2CC(NC(=O)C3CCCC3)CC2=O)c1", "note": "(stereo not drawn)", "activation": "inactive: -21.5%"},
      {"molecule": "COc1ccc(N2CCN(C(=O)c3c4c(nc5ccccc35)C(=O)N(C3CCCCC3)C4)CC2)cc1", "activation": "inactive: -17.5%"}
    ]}
  ]
}
